Test results reported in PubChem BioAssay AID652104 (National Center for Advancing Translational Sciences (NCATS), 2013).
“And” between values parts separate entries of the source, which are not always exact repeats. Identical values can stand only once. In all, about 410,000 compounds went through this assay and about 7,200 (1.8%) were called active. This list was built around the results that the source calls inconclusive (neither active nor inactive); the mix of calls is not that of the screen. Calls follow the shape of the dose curve; as a rule, active = well fitted activation curve with a large enough effect; inconclusive = small, poorly fitted or top-dose-only effect, or another doubt; inactive = no such curve, though single readings can be large or run the other way. Potencies beside an inconclusive call are fits to weak or partial responses and may not hold up.

experiment: qHTS of TDP-43 Inhibitors; details: TDP-43 expressing yeast growth rescue, BacTiter-Glo, 24 h; growth rescue (activation): at 46.1 µM (top of the series) unless noted; also: nearly all actives have a fitted effect of over 50% in size; as to growth rescue (activation): % of control where 0% means no effect
Outline: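 Luminescence from BacTiter-Glo reports growth of TDP-43-expressing yeast after 24 hr at 30 deg C with compound. Cells were raffinose-pregrown to mid-log, then seeded in galactose medium at OD600=0.02.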
Potency is read from the fitted curve at half-maximal effect; tags tell the direction and shape of the fitted curve.

Compound	Potency	growth rescue (activation)
Cc1ccc2c(c1)Oc1ccccc1C=C2C(=O)O	inconclusive: 10 µM [activator, partial curve]	–
CCOC(=O)C1C(=O)C=C(c2ccc(C)cc2)CC1c1ccco1 (configuration not stated)	inconclusive: 35.5 µM [activator, single point]	–
Cn1c(=O)c2c(nc(N3CCOCC3)n2Cc2ccc(Br)cc2)n(C)c1=O	inconclusive: 14.1 µM [activator, partial curve]	–
CCC(C(=O)N1CCN(c2cc(C)ccc2C)CC1)n1nc(C)n2c(cc3occc32)c1=O (configuration not stated)	inconclusive: 35.5 µM [activator, single point]	–
COc1ccc2c(CC(=O)NNC(=O)c3cccs3)coc2c1	inconclusive: 12.6 µM [activator, partial curve, poor fit]	–
Cc1ccc2c(CN3CCN(C(=O)c4ccc(Br)cc4)CC3)cc(=O)oc2c1	inconclusive: 14.1 µM [activator, single point]	–
CCOC(=O)Cn1c(=O)n(C2CCCCC2)c2nc(-c3ccc(C(C)C)cc3)nc(C(N)=O)c21	–	inactive: 0%
Cc1ccccc1-c1cc2c(c3c1ccn3C)C1CCC2O1 (configuration not stated)	active: 11.2 µM	–
COc1ccc2occ(C(=O)c3ccccc3)c2c1	inconclusive: 14.1 µM [activator, partial curve]	–
COc1ccc(C(O)c2nc(-c3ccc(F)c(Cl)c3)cs2)cc1 (configuration not stated)	active: 11.2 µM	–
O=C(Nc1ccc(Br)cc1)c1ccc(F)c(S(=O)(=O)N2CCc3ccccc32)c1	–	inactive: 11.4%
Cc1cc(C)cc(OCC(=O)N2N=C(c3cccnc3)CC2(O)C(F)(F)F)c1 (configuration not stated)	inconclusive: 6.31 µM [activator, partial curve]	–
NC(=O)CC(NC(=O)c1ccccc1)c1ccc(NCc2ccc(F)c(F)c2)c([N+](=O)[O-])c1 (configuration not stated)	inconclusive: 6.31 µM [activator, single point]	–
O=C(/C(=C/O)N=Nc1ccccc1)c1cccs1	inconclusive: 3.98 µM [activator, full curve]	–
CC(=O)N1CCc2cc(CNC(=O)c3ccccc3Br)ccc21	inconclusive: 11.2 µM [activator, partial curve]	–
O=C(COc1ccccc1[N+](=O)[O-])N/N=C/C=C/c1ccco1	–	inactive: 14.3%
COc1ccc(-n2nc(C(=O)NCC(=O)N3CCC(C)CC3)c3ccccc3c2=O)cc1Cl	inconclusive: 14.1 µM [activator, single point]	–
COc1cccc(NC(=O)CSc2nc(=O)n(Cc3ccncc3)c3c2CCC3)c1	–	inconclusive: 18.6% [activator]
Cc1nc(Nc2ccccc2F)c2oc3ccccc3c2n1	active: 2.51 µM	–
Cc1ccccc1CSc1ccc(-c2ccc3c(c2)OCO3)nn1	inconclusive: 11.2 µM [activator, partial curve]	–
Cc1cccc(Cc2cnc(N3C(=N)SC(C)C3=O)s2)c1 (configuration not stated)	active: 22.4 µM	–
Cc1ccc(CNC(=O)c2cc(-c3ccccc3C)nn2CC2CC(c3cccnc3)=NO2)cc1 (configuration not stated)	inconclusive: 15.8 µM [activator, partial curve]	–
COc1ccc(CCC(=O)N2CCN(S(=O)(=O)c3ccc4ccccc4c3)CC2)cc1	inconclusive: 35.5 µM [activator, single point]	–

Compound	Potency	growth rescue (activation)
CCOc1ccc(NC(=O)N2CCN(Cc3cc(=O)n4nc(-c5ccc(OC)cc5)sc4n3)CC2)cc1	–	inactive: 15.4%
COc1ccc(S(=O)(=O)Nc2ccc3c(c2)C(=O)N([C@H](C)CO)C[C@H](C)[C@@H](CN(C)S(=O)(=O)c2ccc(F)cc2)O3)cc1	–	inactive: 26.8%
C/C(=N\Nc1ccc(Cl)c(C(=O)O)c1)c1ccc(Br)s1	–	inconclusive: 39.7% [activator]
O=C(COc1ccc([N+](=O)[O-])cc1)Nc1ccc2c(c1)CCC2	inconclusive: 25.1 µM [activator, partial curve]	–
CCOC(=O)c1noc2nc(C)n(Cc3cccc(C#N)c3)c(=O)c12	–	inactive: 16.1%
Clc1ccc(-n2nnc(-c3nccs3)n2)cc1Cl	inconclusive: 4.47 µM [activator, full curve, poor fit]	–
O=C(COc1ccccc1O)Nc1ccccc1Cl	inconclusive: 14.1 µM [activator, partial curve]	–
CC(=O)Nc1c(Br)cc2c(c1Br)Cc1cc(Br)ccc1-2	inconclusive: 7.94 µM [activator, full curve]	–
O=C(Nc1ccccc1)c1cc(C2CCCCN2C(=O)OCc2ccccc2)on1 (configuration not stated)	–	inactive: 16.8%
Cc1ccc(O)c(C2=NNC(O)(C(F)(F)F)C2)c1 (configuration not stated)	inconclusive: 12.6 µM [activator, single point]	–
O=C(c1cc[n+]([O-])cc1)N1CCCC(N2CCN(c3cccc(C(F)(F)F)c3)CC2)C1 (configuration not stated)	–	inactive: -15.4%
COc1cccc(C(=O)NC(=S)NCc2ccco2)c1	inconclusive: 20 µM [activator, single point]	–
O=C1NCCN1CCNc1nc(NCC2CC2)nc2cc(-c3ccccc3)sc12	inconclusive: 0.562 µM [activator, full curve, poor fit]	–
Cc1ccccc1-c1nnc(SCC(=O)N(C)C2CCCCC2)o1	–	inactive: 11.8%
CCCNC(=O)c1sc2c(c1C(=O)Nc1ccccn1)CCCC2	inconclusive: 15.8 µM [activator, single point]	–
CCc1ccc(NS(=O)(=O)c2c(C)nc3sc(CC)nn3c2=O)cc1	inconclusive: 11.2 µM [activator, partial curve]	–
O=C(/C=C/c1ccccc1Br)c1ccc2c(c1)OCO2	inconclusive: 11.2 µM [activator, partial curve]	–
C=CCNC(=O)C(=O)NCCOc1ccccc1Cl	inconclusive: 14.1 µM [activator, single point]	–
COC(=O)c1cn(C(=O)c2ccc(OC)c(OC)c2)c2ccccc12	–	inconclusive: 136% [activator]
COc1nc(Nc2cccc(C)c2)nc(N2CCCCC2)n1	inconclusive: 22.4 µM [activator, single point]	–
Cc1c(C(=O)NCc2ccccc2C(F)(F)F)sc(=O)n1Cc1ccc(Cl)c(Cl)c1	inconclusive: 14.1 µM [activator, partial curve]	–
CCCc1ccc2oc(C(=O)NCCc3cnn(C)c3)c(C)c2c1	inconclusive: 10 µM [activator, partial curve]	–
Cc1nn(-c2ccccc2)c2sc(-c3n[nH]c(=S)o3)cc12	inconclusive: 10 µM [activator, single point]	–

Compound	Potency	growth rescue (activation)
CC(=O)c1ccc(NC(=O)c2nc(-c3ccc(C)cc3)n3c2CCCCC3)cc1	inconclusive: 11.2 µM [activator, partial curve]	–
CCCCN1C(=O)C(CC(=O)NC2CCCC2)CC(C(=O)N2CCOCC2)=C1C (configuration not stated)	inconclusive: 6.31 µM [activator, partial curve]	–
C/C(=N\O)c1ccc(Cl)c(Cl)c1	inconclusive: 17.8 µM [activator, partial curve]	–
Cc1ccccc1NC(=O)CSc1cn(CC(=O)N(C(C)C)C(C)C)c2ccccc12	–	inactive: 19.7%
CC1CCN(c2ccccc2NC(=S)NC(=O)C(C)(C)C)CC1	inconclusive: 11.2 µM [activator, partial curve]	–
CCOc1cccc(C2CC(=O)Nc3cc4c(cc32)OCCO4)c1 (configuration not stated)	–	inactive: 0%
CCOC(=O)N1CCN(c2ccc(C(C)=O)cc2F)CC1C (configuration not stated)	inconclusive: 12.6 µM [activator, partial curve]	–
COc1ccc(-c2cc(C)no2)cc1S(=O)(=O)N1CCN(c2ccccc2F)CC1	inconclusive: 15.8 µM [activator, partial curve] and inconclusive: 12.6 µM [activator, single point]	–
Cn1c(CSc2nnc(SCc3ccccc3)s2)nc2ccccc21	inconclusive: 3.16 µM [activator, partial curve]	–
COc1ccc(C(=O)O/N=C(\N)Cc2ccc([N+](=O)[O-])cc2)c(OC)c1	inconclusive: 31.6 µM [activator, single point]	–
COc1ccc2nc(NC(=O)CSc3nccc(C)n3)sc2c1	inconclusive: 28.2 µM [activator, partial curve]	–
Cc1ccc2nc(-c3ccc(NS(=O)(=O)c4ccc(F)c(F)c4)cc3)sc2c1	active: 25.1 µM	–
O=C1c2ccccc2-c2c1c1ccccc1c(=O)n2CCO	inconclusive: 10 µM [activator, partial curve]	–
N/C(=N\OC(=O)c1ccc(F)cc1)c1cccc([N+](=O)[O-])c1	active: 12.6 µM	–
CN(C)c1nc(=Nc2cccc(Cl)c2)ss1	–	inconclusive: -86.2% [activator]
CCOc1ccc(C2=NNC(c3cccs3)=Nc3ccc(OC)cc32)cc1	–	inactive: -36.2%
Cn1c(=O)n(CCc2ccccc2)c(=O)c2c1nc1n2CCN1Cc1ccco1	inconclusive: 15.8 µM [activator, single point]	–
CSc1nccc(NC(=O)c2ccc(C(C)(C)C)cc2)n1	inconclusive: 6.31 µM [activator, partial curve]	–
COc1ccc(CCNC(=O)c2cnn(-c3ccc(F)cc3)c2C2CCN(C(=O)OC(C)(C)C)CC2)c(OC)c1	inconclusive: 7.08 µM [activator, full curve]	–
CC1CCN(C(=S)SCc2nc(N)nc(Nc3ccccc3)n2)CC1	inconclusive: 20 µM [activator, single point]	–
COc1cccc(C(c2c(NC(=O)c3ccco3)sc(C)c2C)N2CCOCC2)c1 (configuration not stated)	inconclusive: 35.5 µM [activator, single point]	–
